This is an account of results in the antibiotic and cytotoxicity screens of Wong et al. (2023).

Some of the results follow.

This experiment has as its system HepG2. Description: cytotoxicity call (relative viability < 0.9). The following applies: 10 µM.
`Cc1ccc(S(=O)(=O)Nc2ccc3c(c2)C(=O)N([C@H](C)CO)C[C@@H](C)[C@@H](CN(C)C(=O)Nc2ccc4c(c2)OCO4)OCCCC[C@H](C)O3)cc1`: the cytotoxicity call was “inactive”. `CC(=O)NS(=O)(=O)c1ccc(N)cc1`: the cytotoxicity call was “inactive”. To `C=CC[C@@H](CC(=O)NCCO)C(=O)NC[C@H](OC(=O)[C@H](CC=C)CC(=O)OC(C)(C)C)c1ccccc1` belongs “inactive”; to `C[C@@H]1CCCCO[C@@H](CN(C)C(=O)NC2CCCCC2)[C@H](C)CN([C@@H](C)CO)C(=O)c2cc(NC(=O)Cc3ccccc3)ccc2O1`, “inactive”. To `CNC(=C[N+](=O)[O-])NCCSCc1csc(CN(C)C)n1` belongs “inactive”; to `O=c1ccc2c[nH][nH]c-2c1`, “inactive”. Turning to `CC(C)NC(=O)N(C)C[C@H]1Oc2ccc(NS(=O)(=O)c3ccccc3)cc2CC(=O)N([C@H](C)CO)C[C@@H]1C`, the cytotoxicity call was “inactive”. On to `C[C@H]1CN([C@@H](C)CO)C(=O)Cc2cc(NC(=O)CCC(F)(F)F)ccc2O[C@H]1CN(C)S(=O)(=O)c1cccs1`, for which the cytotoxicity call was “inactive”.

In the case of `CCS(=O)(=O)N(C)C[C@@H]1OCc2ccccc2-c2c(n(C)c3ccccc23)C(=O)N([C@H](C)CO)C[C@@H]1C`, the cytotoxicity call was “inactive”. On to `Cc1noc(C)c1NC(=O)Nc1ccc2c(c1)C(=O)N([C@H](C)CO)C[C@H](C)[C@H](CN(C)S(=O)(=O)c1ccc(F)cc1)OCCCC[C@@H](C)O2`, for which the cytotoxicity call was “inactive”. To `C[C@H](CO)N1C[C@H](C)[C@@H](CN(C)S(=O)(=O)c2cccs2)Oc2ccc(NC(=O)Nc3cccc4ccccc34)cc2C1=O` belongs “inactive”; to `C[C@H]1CN([C@@H](C)CO)C(=O)Cc2cc(NS(=O)(=O)c3ccc(F)cc3)ccc2O[C@H]1CN(C)S(=O)(=O)c1ccccc1`, “inactive”. As for `CO[C@H](CN(C)C(=O)Nc1ccc(C(F)(F)F)cc1)[C@H](C)CN(Cc1ccccc1Cl)[C@@H](C)CO`, the cytotoxicity call was “inactive”. With `CCS(=O)(=O)N1CC[C@]2(CC1)CN(Cc1ccccc1OC)[C@H](CO)c1c2c2ccc(cc2n1C)OC` the entry was “inactive”; with `C[C@H](CO)N1C[C@H](C)[C@H](CN(C)Cc2ccc(C(=O)Nc3ccccc3N)cc2)OCCCC[C@H](C)Oc2ccc(NC(=O)C3CCCCC3)cc2C1=O`, “inactive”. Consider `C[C@@H]1CN([C@H](C)CO)C(=O)Cc2cc(NS(=O)(=O)c3ccc(Cl)cc3)ccc2O[C@@H]1CN(C)C(=O)Nc1ccc(C(F)(F)F)cc1`, for which the cytotoxicity call is “inactive”.

`CC(=O)c1ccc(OCc2nnn(CC(=O)NS(=O)(=O)Cc3ccccc3)c2-c2ccccc2)cc1`: the cytotoxicity call was “inactive”. To `C[C@@H]1CN([C@@H](C)CO)C(=O)c2cc(NC(=O)NC3CCCCC3)ccc2O[C@@H](C)CCCCO[C@@H]1CN(C)C(=O)CCC(F)(F)F` belongs “inactive”; to `C=CCC[C@H](Cc1ccc(F)cc1)C(=O)OC[C@@H](Cc1c[nH]c2ccccc12)NC(=O)[C@@H](CC=C)CC(=O)N[C@@H](CO)Cc1ccccc1`, “inactive”; to `C[C@H]1CN([C@@H](C)CO)C(=O)c2cccc(NS(=O)(=O)c3cccs3)c2O[C@@H]1CN(C)Cc1ccc(Cl)c(Cl)c1`, “inactive”. `Cc1noc(C)c1S(=O)(=O)N(C)C[C@H]1OCCCC[C@H](C)Oc2ccc(NC(=O)Nc3ccccc3)cc2C(=O)N([C@H](C)CO)C[C@@H]1C`: the cytotoxicity call was “inactive”. To `C[C@@H]1CN([C@@H](C)CO)C(=O)c2cccc(NC(=O)c3cnccn3)c2O[C@@H]1CN(C)CC1CCCCC1` belongs “inactive”; to `NC(=O)C[n+]1cccc2ccccc21`, “inactive”; to `COc1ccc(NC(=O)Nc2ccc3c(c2)C(=O)N([C@@H](C)CO)C[C@@H](C)[C@H](CN(C)Cc2ccc(C(=O)O)cc2)OCCCC[C@@H](C)O3)cc1`, “inactive”. To `CC(C)CC#Cc1ccc2c(c1)O[C@H](CN(C)C(=O)Cc1cccnc1)[C@@H](C)CN([C@H](C)CO)S2(=O)=O` belongs “inactive”. To `CC(C)c1ccc2c(c1)C(=O)[C@H](N)CCO2` belongs “inactive”; to `Oc1c(Cl)cc(Cl)c2cccnc12`, “active”.
